Measured values published in PMC4336329 (PLoS ONE, 2015).
Among all 310,000 compounds or so, about 14,000 (4.5%) showed an effect of 50% or more. Effects have a minus sign here. This is one part of the list.

biological target: human ether-à-go-go-related gene (hERG) potassium channel (human, UniProt Q12809); experiment: primary screen, population patch clamp on CHO cells stably expressing hERG
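Further: peak tail current of the secondary pulse compared with the same well before compound.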

Chain of human ether-à-go-go-related gene (hERG) potassium channel (Q12809 whole entry, looked up): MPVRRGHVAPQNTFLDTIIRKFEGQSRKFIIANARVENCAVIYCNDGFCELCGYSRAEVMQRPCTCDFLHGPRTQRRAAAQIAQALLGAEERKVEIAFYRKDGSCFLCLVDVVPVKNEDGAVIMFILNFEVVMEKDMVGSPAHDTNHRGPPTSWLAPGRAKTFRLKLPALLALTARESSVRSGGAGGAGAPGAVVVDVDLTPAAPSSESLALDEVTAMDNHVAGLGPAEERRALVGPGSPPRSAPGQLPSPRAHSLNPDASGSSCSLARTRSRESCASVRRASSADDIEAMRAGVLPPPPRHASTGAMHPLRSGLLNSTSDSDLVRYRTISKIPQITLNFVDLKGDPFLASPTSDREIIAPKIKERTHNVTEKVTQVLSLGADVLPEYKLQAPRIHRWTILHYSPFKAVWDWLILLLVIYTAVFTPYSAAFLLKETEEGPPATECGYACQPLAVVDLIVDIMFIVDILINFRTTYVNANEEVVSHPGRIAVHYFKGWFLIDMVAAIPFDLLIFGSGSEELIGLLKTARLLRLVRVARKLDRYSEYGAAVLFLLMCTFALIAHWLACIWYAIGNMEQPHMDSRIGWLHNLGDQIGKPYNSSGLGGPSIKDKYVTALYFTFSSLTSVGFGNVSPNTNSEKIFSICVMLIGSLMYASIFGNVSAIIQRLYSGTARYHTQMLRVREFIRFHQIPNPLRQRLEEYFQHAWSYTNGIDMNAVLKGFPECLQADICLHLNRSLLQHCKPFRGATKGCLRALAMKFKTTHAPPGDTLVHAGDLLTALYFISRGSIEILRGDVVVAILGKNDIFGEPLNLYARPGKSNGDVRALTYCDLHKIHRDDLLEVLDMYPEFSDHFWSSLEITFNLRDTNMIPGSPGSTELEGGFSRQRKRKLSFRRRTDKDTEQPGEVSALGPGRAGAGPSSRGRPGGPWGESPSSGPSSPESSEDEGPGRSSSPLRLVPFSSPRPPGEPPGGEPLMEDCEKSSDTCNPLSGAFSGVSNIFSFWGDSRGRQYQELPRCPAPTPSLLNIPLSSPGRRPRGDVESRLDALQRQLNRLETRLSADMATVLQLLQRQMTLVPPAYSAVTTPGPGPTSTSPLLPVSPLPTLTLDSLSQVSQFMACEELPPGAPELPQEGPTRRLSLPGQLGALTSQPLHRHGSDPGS

Structure (SMILES) | hERG current change (%, negative = inhibition) at 10uM
COc1ccc(CN(C)CC(=O)Nc2ccc(Cl)cc2F)c(OC)c1.O=C(O)C(=O)O | -16.1%
COC(=O)c1ccc(CSc2nnc(NC(C)C)s2)cc1 | -13.9%
COc1ccc(Br)cc1CN(C)CC(=O)Nc1ccccc1Cl | -11.7%
CCC(C(=O)OCC(=O)Nc1ccc(C(N)=O)cc1)c1ccccc1 (stereo not drawn) | -40.9%
Cc1ccccc1-c1nc(CS(=O)CC(=O)NCc2ccccn2)c(C)o1 (stereo not drawn) | 12.4%
Oc1ccccc1Oc1ncc(Br)c(N2CCOCC2)n1 | -35.1%
O=c1[nH]c(/C=C/c2ccc(Br)cc2)nc2ccccc12 | 9.94%
Cc1c(Br)cc(C(=O)OC2CCN(C)CC2)c(C)c1C | -29.9%
Cc1ccc(S(=O)(=O)CCC(=O)OCC(=O)c2ccc(C)c(C)c2)cc1 | 5.47%
COC(=O)c1ccc(-c2c(-c3ccccc3)ncc3cc(OC)c(OC)cc23)cc1 | -7.85%
COC(=O)c1ccc(NC(=O)CCn2c(=O)oc3ccccc32)cc1 | 11.6%
C/C(N)=C(/C#N)C(=O)COC(=O)c1oc2ccccc2c1COC(C)C | 11.3%
O=C(Nc1ccn(-c2ccccc2)n1)c1ccc(S(=O)(=O)N2CCCCCC2)cc1 | -15.4%
O=C(O)c1ccccc1-c1ccccc1C(=O)Nc1cccc2ccccc12 | 26.6%
C#CCOCCOCCOCCNc1nc(N2CCN(C(=O)[C@H](CCCCN)n3cc([C@@H](N)CC(C)C)nn3)CC2)nc(N2CCN(C(=O)[C@H](Cc3ccc(O)cc3)n3cc([C@@H](N)CC(C)C)nn3)CC2)n1.Cl | 7.84%
O=C(NC1CCCC1)C(c1ccncc1)N(C(=O)c1csnn1)c1ccc(Cl)cc1 (stereo not drawn) | -10.4%
COc1ccc(OCC(O)CNS(=O)(=O)c2ccc(NC(C)=O)cc2)cc1 (stereo not drawn) | 19.4%
C=CCn1c(SCC(=O)NC2CC2)nnc1-c1ccccn1 | -0.328%
Cl.NCCc1nnc(SCc2ccccc2F)o1 | 1.82%
CNC(=S)N(Cc1ccc2c(c1)OCO2)C1CC(=O)N(c2ccc(F)cc2)C1=O (stereo not drawn) | 1.94%
COC(=O)c1nn(-c2cccc(C)c2)c2nnc(Cc3ccccc3)c(=O)n12 | -25.3%
CC(=O)Nc1ccc(S(=O)(=O)N=S(C)C)cc1 | 2.56%
CCCCOc1ccc(C(=O)N(CC)CC(=O)NCc2cccs2)cc1 | -19.1%

Structure (SMILES) | hERG current change (%, negative = inhibition) at 10uM
O=C(Cn1cc2c(n1)CCCCC2)NCc1ccccn1 | -2.69%
COc1ccccc1CN1CCSCC1 | 9.45%
COc1ccccc1NS(=O)(=O)c1cccc(C(=O)NCC(c2ccco2)N(C)C)c1 (stereo not drawn) | -16%
Nc1n[nH]c(S(=O)(=O)CCCc2ccccc2)n1 | 4.57%
O=C(CCSCCc1ccccn1)Nc1ccc(Br)cn1 | -14.1%
FC(F)(F)c1ccccc1/C=N/Nc1ccccn1 | 22.4%
Nc1nc(-c2cccs2)c(CC(=O)O)s1 | 18%
CCCCNS(=O)(=O)c1ccc2nc(SCC(=O)N3CC(C)OC(C)C3)[nH]c2c1 (stereo not drawn) | -4%
Cc1c(S(=O)(=O)Nc2ccc(Br)cc2)c(=O)n(C)c(=O)n1C | 9.99%
O=C(CCCCCNC(=S)Nc1ccccc1)C[N+](=O)[O-] | -5.2%
COc1ccc(Nc2nc(N3CCCC3)nc(N3CCOCC3)n2)cc1 | 3.68%
O=C(Nc1ncc(Cc2ccc(SC(F)F)cc2)s1)c1ccc(OC(F)F)cc1 | 15.1%
COC(=O)c1ccn(-c2nc(-c3ccco3)cc(C(F)(F)F)n2)n1 | -16.6%
COC(=O)c1c(NC(=O)CN2C(=O)c3ccccc3C2=O)sc(Cc2ccc3c(c2)OCO3)c1C | 5.02%
CCCNC(=O)c1cc2cc([N+](=O)[O-])ccc2s1 | -9.82%
COc1ccc(CC(=O)OC(C)CN2CCCCC2)cc1 (stereo not drawn) | 4.23%
COc1ccc(C(=O)Nn2cc3c(c2-c2ccccc2)c(=O)n(C)c(=O)n3C)cc1 | 12.4%
CCOC(=O)c1cc2c(=O)n3ccccc3nc2n(CCCOC)c1=NC(=O)c1ccncc1 | -87.3%
CCCn1c(-c2ccc[nH]c2=O)nc2ccccc21 | 15.6%
O=C(c1ccc(CNc2c(N3CCCC3)c(=O)c2=O)cc1)N1CCN(C2CCCCC2)CC1 | 15.7%
Cc1ccc(OCC(O)CN2C(=O)NC(C)(C)C2=O)c(C)c1 (stereo not drawn) | 5.9%
Cc1ccc2c(c1)N(C(C)C(=O)N1CCC3(CC1)OCCO3)C(=O)CO2 (stereo not drawn) | 15.7%
